Measured values from PMC6919601, “Identification of Plasmodium dipeptidyl aminopeptidase allosteric inhibitors by high throughput screening” (PLoS ONE, 2019).
In all, about 110,000 compounds went through this assay and about 230 (0.21%) showed an effect of 50% or more. The list shows a part of the results.

target: DPAP1 (Plasmodium falciparum, UniProt Q8IIJ9); assay: primary screen, percent inhibition; read by cleavage of a fluorogenic dipeptide substrate; higher = more effect of the substance; parameters: species or system P. falciparum D10 trophozoite lysates; single well
Sequence (Q8IIJ9 whole entry, looked up): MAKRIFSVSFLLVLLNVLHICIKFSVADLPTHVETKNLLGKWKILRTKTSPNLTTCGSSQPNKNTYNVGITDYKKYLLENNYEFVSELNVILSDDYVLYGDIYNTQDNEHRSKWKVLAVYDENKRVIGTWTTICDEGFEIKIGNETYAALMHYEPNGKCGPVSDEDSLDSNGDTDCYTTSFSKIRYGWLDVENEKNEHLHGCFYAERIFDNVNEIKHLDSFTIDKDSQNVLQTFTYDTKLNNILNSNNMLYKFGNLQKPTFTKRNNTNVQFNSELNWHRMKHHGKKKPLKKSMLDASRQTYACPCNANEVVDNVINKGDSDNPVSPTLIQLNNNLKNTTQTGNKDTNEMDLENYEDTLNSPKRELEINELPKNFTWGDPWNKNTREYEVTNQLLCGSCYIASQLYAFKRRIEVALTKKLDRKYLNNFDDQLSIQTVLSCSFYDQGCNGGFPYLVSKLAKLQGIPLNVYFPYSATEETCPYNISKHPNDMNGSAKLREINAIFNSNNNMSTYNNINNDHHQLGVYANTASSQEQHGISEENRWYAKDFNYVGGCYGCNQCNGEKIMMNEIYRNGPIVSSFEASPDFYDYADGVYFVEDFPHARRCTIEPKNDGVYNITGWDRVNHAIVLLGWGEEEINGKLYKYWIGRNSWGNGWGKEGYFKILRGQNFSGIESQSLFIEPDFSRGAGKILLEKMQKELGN
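Also: 30 min substrate incubation versus DMSO and 10 µM JCP410 controls.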

Row | Structure (SMILES) | % Inhibition @ 10 uM
1 | O=C(NCCC1=CCCCC1)C1CCN(C(=O)c2cnn(-c3ccccc3)c2-n2cccc2)CC1 | 3.4%
2 | Cc1ccnc(NC(=O)c2ccc(C)c(C)c2)c1 | 2.64%
3 | Cc1cccc(NC(=O)CCCC(=O)Nc2cccc(C)c2)c1 | -4.67%
4 | Cc1c(CN2C[C@@H]3C[C@H](C2)c2cccc(=O)n2C3)c(=O)n(-c2ccccc2)n1C | -3.63%
5 | CCOc1ccc(CCNC(=O)c2nnc(CS(=O)(=O)c3ccccc3)o2)cc1OCC | -0.602%
6 | COc1cc(OC)cc(C(=O)Nc2cccc(C)c2C)c1 | 2.13%
7 | CCN1CCN(C(=O)/C=C\C(=O)O)CC1 | 3.04%
8 | COc1ccc(S(=O)(=O)N2CCC(Cc3ccccc3)CC2)cc1OC | -5.06%
9 | COc1ccc2c(=O)cc(-c3ccc4c(c3)OCO4)n(C)c2c1 | 6.43%
10 | OCC1CCCN1Cc1ccc(Cl)cc1Cl (centres unmarked) | -0.0494%
11 | Cc1nn(-c2ccccc2)c(-n2cccc2)c1C(=O)O | 1.63%
12 | COc1cccc(CN2C(=O)c3ccccc3C2=O)c1 | -5.15%
13 | CCC(CN1CCOCC1)NC(=O)C1CCN(c2ncnc3c2nc2n3CCCCC2)CC1 (centres unmarked) | -2.46%
14 | CCOC(=O)N1CCC(NC(=O)C(=O)CC(=O)c2ccc(OC)cc2)CC1 | 4.01%
15 | Cn1c(COc2ccc(C(=O)O)cc2)nc2ccccc21 | 3.36%
16 | O=C(Nc1ccc(S(=O)(=O)N2CCCCCC2)cc1)c1ccco1 | -2.56%
17 | NC(=O)CN1C(C(=O)c2ccccc2)=C(NCc2ccccc2)c2ccccc2S1(=O)=O | 5.17%
18 | Cc1cc(C)c(S(=O)(=O)Nc2ccc(S(=O)(=O)N3CCCC3)cc2)c(C)c1 | 0.583%
19 | COc1ccc(-n2ncc3c(NCc4ccccc4Cl)ncnc32)cc1 | 2.07%
20 | NS(=O)(=O)c1ccc(NCCCC(=O)O)cc1 | -6.71%
21 | Cc1cccc(C(=O)Nc2sc3c(c2C(N)=O)CCCC3)c1 | 7.98%
22 | CC(=O)Nc1cccc(NC(=O)C(C)Oc2ccc(Cl)cc2Cl)c1 (centres unmarked) | -9.79%
23 | CC1=C(C(=O)Nc2ccc(Cl)cc2)C(c2ccc(Br)cc2)NC(=O)N1 (centres unmarked) | -1.04%
24 | Cc1ccc(OCCN2C(=O)CSC2=O)cc1 | 1.63%
25 | Cc1ccc(OCC(=O)Nc2ccc(S(=O)(=O)NC(C)(C)C)cc2)c(C)c1 | 4.57%
26 | Cc1ccc(OCC(=O)Nc2cccc(C)n2)c(C)c1 | 7.54%

Row | Structure (SMILES) | % Inhibition @ 10 uM
27 | CCCSc1ncc(Cl)c(C(=O)Nc2sc(C(=O)OCC)c(C)c2C(=O)OCC)n1 | 4.47%
28 | CCCOc1ccc(C2C(C#N)=C(N)Oc3cc(C)oc(=O)c32)cc1OC (centres unmarked) | 12.2%
29 | C=CC[C@](O)(c1ccccc1)[C@@H](O)c1ccccc1 | 0.851%
30 | O=S1(=O)CCC(S(=O)(=O)N(Cc2ccccc2)Cc2ccccc2)C1 (centres unmarked) | -0.712%
31 | COc1ccc(NC(=O)c2ccccc2C)c(OC)c1 | -3.15%
32 | CC(=O)Nc1ccc(S(=O)(=O)Nc2ccc(S(=O)(=O)Nc3ccc(F)cc3)cc2)cc1 | -7.96%
33 | COC(=O)c1ccc(C2CC(=O)NC3=C2C(=O)CCC3)cc1 (centres unmarked) | -3.21%
34 | Cc1ccc(C)c(OCC(=O)N2CCc3ccccc32)c1 | -5.67%
35 | O=C(NCc1ccccc1Cl)c1ccc2c(c1)ncn2-c1ccc(F)cc1F | 1.2%
36 | Cc1nn(C)c2c1c(-c1ccccc1)cc(=O)n2C(C)C(=O)N1CCC2(CC1)OCCO2 (centres unmarked) | -6.31%
37 | CCOc1cc(C2C(C#N)=C(N)Oc3cc(N)ccc32)ccc1OC (centres unmarked) | -7.52%
38 | O=S(=O)(Nc1ccccc1C(F)(F)F)c1cc(Cl)ccc1Cl | -4.91%
39 | COc1ccc(CNC2CCCCC2)c(OC)c1C | 2.22%
40 | CCC1CCC(N(C)CCc2ccccn2)CC1 (centres unmarked) | 3.06%
41 | CC(=O)n1c(-c2ccccc2)c(-c2ccccc2)n(C)c1=O | -4.39%
42 | Cc1onc(-c2ccccc2)c1C(=O)Nc1cccc(Br)c1 | -6.25%
43 | N#CC1=C(NC(=O)Cc2ccccc2)c2ccccc2CC12CCCC2 | 0.878%
44 | O=C1CC(c2cccc(F)c2)c2cc3c(cc2N1)OCO3 (centres unmarked) | 3.57%
45 | COc1ccc(N2C(=O)CC(N(Cc3ccc4c(c3)OCO4)C(=O)c3cccc(F)c3)C2=O)cc1 (centres unmarked) | 1.64%
46 | COc1ccccc1C(=O)Nc1ccc2nc(SCC(=O)N(C)C)sc2c1 | -1.64%
47 | O=C(C1CCN(S(=O)(=O)c2cccc3nsnc23)CC1)N1CCN(Cc2ccccc2)CC1 | 1.9%
48 | CC1=C(C(=O)Nc2cccnc2)C(c2ccccc2)n2nc(CCCO)nc2N1 (centres unmarked) | 0.889%
49 | Cc1ccc2[nH]c3c(c2c1)CCCC3NCCCOc1ccc(F)cc1 (centres unmarked) | -3.82%
50 | Cc1ccc2nc(NCCCN3CCOCC3)c3nncn3c2c1 | -4.21%
51 | O=C(O)c1ccc(COc2ccc(Br)cc2)cc1 | 2.09%
52 | Cc1cc(C(=O)Nc2cccnc2)on1 | -7.13%

Row | Structure (SMILES) | % Inhibition @ 10 uM
53 | CCOC(=O)NC(=O)c1ccc2ccccc2n1 | 1.12%
54 | Cc1nn(Cc2nc(-c3ccc(-n4cccc4)cc3)no2)c(C)c1Br | 4.61%
55 | COC(=O)C1=C(C)N=c2s/c(=C/c3ccoc3)c(=O)n2C1c1ccccc1 (centres unmarked) | -2.63%
56 | CN(C)S(=O)(=O)c1ccc(C(=O)C2=C(O)C(=O)N(CCN3CCOCC3)C2c2ccco2)cc1 (centres unmarked) | -1.25%
57 | Cn1c(=O)[nH]c(=O)c2c1nc1oc(-c3ccc([N+](=O)[O-])cc3)cn12 | -5.61%
58 | Cn1c(=O)[nH]c(=O)c2ncn(Cc3ccccc3)c21 | 2.65%
59 | Cc1ccc(Cn2cc(CCCC(=O)NCC3CCCO3)c3ccccc32)cc1 (centres unmarked) | 0.526%
60 | CCc1nn(CC(=O)NCCN2CCOCC2)c(=O)c2cc3c(OC)cccc3n12 | 0.0198%
61 | O=C(CCC(=O)Nc1ccc(F)cc1)Nc1ccc(F)cc1 | -0.366%
62 | Oc1ccccc1CN1CCCN(Cc2ccccc2O)C1 | -3.06%
63 | CC1C2=C(CC(C)(C)CC2=O)OC2=C1C(=O)CC(C)(C)C2 | -0.693%
64 | COc1cccc(OC)c1C(=O)NCCC1=CCCCC1 | -0.132%
65 | COc1ccc(Br)cc1CN1CCN(c2cccc(C(F)(F)F)c2)CC1 | 3%
66 | CC(=O)c1ccc(NC(=O)c2ccccc2C)cc1 | 0.907%
67 | COc1ccc(CCNC(=O)CNS(=O)(=O)c2ccc(Br)s2)cc1OC | 3.27%
68 | COc1ccc(C2=NN(C(=O)CCC(=O)O)C(c3ccccc3)C2)cc1 (centres unmarked) | -4.5%
69 | Cc1c(Cl)cccc1NS(=O)(=O)c1ccc(Cl)cc1 | 1.63%
70 | N#CCNC(=O)[C@H](Cc1c(F)cccc1F)NC(=O)OCc1ccccc1 | -0.207%
71 | Cc1cccc(C)c1NC(=O)c1cccnc1 | -1.22%
72 | Clc1ccc2nc(-c3cccs3)c(NC3CCCC3)n2c1 | -2.56%
73 | CCCCNC(=O)c1cc(-c2ccccn2)nc2ccc(S(=O)(=O)N3CCOCC3)cc12 | 0.387%
74 | CCc1ccccc1NC(=O)c1ccccc1N1C(=O)C2C3C=CC(C3)C2C1=O (centres unmarked) | -2.74%
75 | Cc1ccc(OCCSc2nc(C)c(C)c(O)n2)cc1 | -4.35%
76 | Cc1ccccc1-c1nc2s/c(=C\C=C\c3ccccc3)c(=O)n2n1 | 0.561%
77 | O=C(c1cccc([N+](=O)[O-])c1)c1ccc(C(=O)O)c(C(=O)O)c1 | -6.71%
78 | Cc1ccc2sc(-c3ccc(NC(=O)c4ccccc4)cc3)nc2c1 | 0.467%

Row | Structure (SMILES) | % Inhibition @ 10 uM
79 | CCOC(=O)c1c(NC(=O)CCNCCO)sc2c1CCCC2 | 0.343%
80 | Cn1c(=O)c2c(-c3ccccc3F)c(C#N)c(N)nc2n(C)c1=O | 1.45%
81 | COCCn1c(COc2ccc(OC)cc2)nc2ccccc21 | -2.46%
82 | CCO/C(O)=C1\C(C)=NC2=C(C(=O)CC(C)(C)C2)C1CCC1CCCCC1 (centres unmarked) | 1.88%
83 | Cc1ncc(CO)c2c1Oc1nc(-c3ccc(Cl)cc3)nc(SCC(N)=O)c1C2 | 3.02%
84 | CCOC(=O)CC(C)(O)P(=O)(OC)OC (centres unmarked) | -5.62%
85 | COc1cccc(OC)c1OCc1cc(C2C(C#N)=C(N)OC3=C2C(=O)CCC3)c(C)cc1C (centres unmarked) | -5.63%
86 | O=C(O)C1CCCN1C(=O)OCc1ccccc1 (centres unmarked) | 4.55%
87 | CCCCCC1=C(O)C(=O)c2ccccc2C1=O | 3%
88 | CCN1CCN(CC(O)COc2ccc(OC)cc2)CC1 (centres unmarked) | -5.69%
89 | O=C(CSc1c2c(nc3ccccc13)CCC2)Nc1nc2ccccc2s1 | -3.09%
90 | CCC(=O)N1CCN(c2ccc(NC(=O)Cc3ccccc3)cc2)CC1 | 0.843%
91 | CCN1CCN(c2nc3c(S(=O)(=O)c4ccccc4)nnn3c3ccc(Cl)cc23)CC1 | -3.08%
92 | O=C(NCCc1ccccc1)Nc1cnc2ccccn2c1=O | 2.05%
93 | Cc1ccc(NC(=O)c2cnn(-c3ccccc3)c2-n2cccc2)nc1 | 8.65%
94 | N#C/C(=C\c1ccccc1[N+](=O)[O-])C(N)=O | 11.1%
95 | CCCOc1ccc(C2c3c(oc4ccc(C)cc4c3=O)C(=O)N2CCCN2CCOCC2)cc1 (centres unmarked) | 2.31%
96 | Cc1ccccc1/C=C1\C(=O)NC(=S)N(c2ccc(Cl)cc2Cl)C1=O | 10.2%
97 | Cn1c(=O)c2c(nc(CN3CCc4ccccc4C3)n2CCc2ccccc2)n(C)c1=O | 2%
98 | COc1ccc(CN2CCN(c3cccc(Cl)c3)CC2)cc1 | -3.65%
99 | O=C(c1ccco1)c1cn(Cc2ccc(F)cc2)c2ccccc12 | -11%
100 | CC1(c2ccccc2)CN(CC(N)=O)CCN1 (centres unmarked) | 6.03%
101 | Cc1ccc2c(c1)-c1c(cnn1CC(=O)NCCN(C)C1CCCCC1)CO2 | -4.51%
